Source: the supplement of paper PMC4604168 (melanoma cell lines)
The other results are listed elsewhere or left out. Many values rest on one well or one pass, so single values are uncertain.

Legend:
Assay in all cases: cell count relative to DMSO control; melanoma cells; higher = more viable cells
Conditions in all cases: library dose: low library concentration; 72 h
COLO792 = test system: COLO792
COLO800 = test system: COLO800
COLO829 = test system: COLO829
G361 = test system: G361
IPC-298 = test system: IPC-298
IST-MEL1 = test system: IST-MEL1
LB2518-MEL = test system: LB2518-MEL
LOXIMVI = test system: LOXIMVI
MEL-HO = test system: MEL-HO
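Note: cell number obtained by counting DAPI-stained nuclei in high-throughput microscope images with image analysis software, screen run in 1,536-well plates.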

Compound	cell count (COLO792)	cell count (COLO800)	cell count (COLO829)	cell count (G361)	cell count (IPC-298)	cell count (IST-MEL1)	cell count (LB2518-MEL)	cell count (LOXIMVI)	cell count (MEL-HO)
NC1(c2ccc(-c3nc4ccn5c(=O)[nH]nc5c4cc3-c3ccccc3)cc2)CCC1 + CC1(C)NC(=O)N(c2ccc([N+](=O)[O-])c(C(F)(F)F)c2)C1=O [nilutamide] (first compound 0.4 µM, partner dose 1 µM)	81.7%	63.5%	117%	95.9%	105%	86.7%	81.1%	88.3%	81.7%
CS(=O)(=O)c1ccc(C(=O)Nc2ccc(Cl)c(-c3ccccn3)c2)c(Cl)c1 [vismodegib] + COc1ccc(COc2ccc(Cc3cnc(N)nc3N)cc2OC)cc1 [GW2580] (first compound 1 µM, partner dose 1 µM)	102%	101%	112%	115%	102%	86.5%	113%	84.7%	107%
CS(=O)(=O)c1ccc(C(=O)Nc2ccc(Cl)c(-c3ccccn3)c2)c(Cl)c1 [vismodegib] + O=S(=O)(c1ccccc1)N(CC(F)(F)F)c1ccc(C(O)(C(F)(F)F)C(F)(F)F)cc1 [T0901317] (first compound 1 µM, partner dose 1.4 µM)	101%	88.7%	105%	82%	85.7%	106%	95.1%	85.9%	98.3%
CCCS(=O)(=O)Nc1ccc(F)c(C(=O)c2c[nH]c3ncc(Cl)cc23)c1F + CC1(C)NC(=O)N(c2ccc([N+](=O)[O-])c(C(F)(F)F)c2)C1=O [nilutamide] (first compound 0.08 µM, partner dose 1 µM)	85.5%	114%	96.6%	96.3%	99.3%	97.9%	104%	83.4%	88.7%
C=C(c1ccc(C(=O)O)cc1)c1cc2c(cc1C)C(C)(C)CCC2(C)C [Bexarotene] + COc1cc2c(Oc3ccc4[nH]c(C)cc4c3F)ncnc2cc1OCCCN1CCCC1 [cediranib] (first compound 2 µM, partner dose 0.4 µM)	97.1%	149%	94.8%	80.3%	109%	92.8%	93.3%	167%	90.8%
C=C(c1ccc(C(=O)O)cc1)c1cc2c(cc1C)C(C)(C)CCC2(C)C [Bexarotene] + CCN(CC)CCCCNc1ncc2cc(-c3cc(OC)cc(OC)c3)c(NC(=O)NC(C)(C)C)nc2n1 [PD173074] (first compound 2 µM, partner dose 0.1 µM)	109%	164%	120%	110%	105%	107%	104%	152%	97.2%
CCCS(=O)(=O)Nc1ccc(F)c(C(=O)c2c[nH]c3ncc(Cl)cc23)c1F + O=C(Nc1ccccc1)c1cc([N+](=O)[O-])ccc1Cl [GW9662] (first compound 0.08 µM, partner dose 2 µM)	96.3%	103%	127%	86.1%	93.8%	109%	108%	119%	89.3%
CS(=O)(=O)c1ccc(C(=O)Nc2ccc(Cl)c(-c3ccccn3)c2)c(Cl)c1 [vismodegib] + CCN(CC)CCCCNc1ncc2cc(-c3cc(OC)cc(OC)c3)c(NC(=O)NC(C)(C)C)nc2n1 [PD173074] (first compound 1 µM, partner dose 0.1 µM)	104%	161%	99.7%	101%	99%	97.9%	114%	125%	103%
C=C(c1ccc(C(=O)O)cc1)c1cc2c(cc1C)C(C)(C)CCC2(C)C [Bexarotene] + O=C(O)C(=O)Nc1sc2c(c1C(=O)O)CCNC2 [TCS401] (first compound 2 µM, partner dose 1.66667 µM)	113%	132%	95.2%	85.2%	96.8%	110%	106%	78%	96%
NC1(c2ccc(-c3nc4ccn5c(=O)[nH]nc5c4cc3-c3ccccc3)cc2)CCC1 + Cn1cncc1[C@@](N)(c1ccc(Cl)cc1)c1ccc2c(c1)c(-c1cccc(Cl)c1)cc(=O)n2C [tipifarnib] (first compound 0.4 µM, partner dose 0.01 µM)	59.2%	103%	74.8%	80.8%	96.3%	84.9%	75.4%	85.7%	80.1%
CN(c1ncccc1CNc1nc(Nc2ccc3c(c2)CC(=O)N3)ncc1C(F)(F)F)S(C)(=O)=O + CC1(C)NC(=O)N(c2ccc([N+](=O)[O-])c(C(F)(F)F)c2)C1=O [nilutamide] (first compound 0.08 µM, partner dose 1 µM)	91.3%	127%	77.5%	95.7%	98.7%	105%	95%	83.4%	110%
CS(=O)(=O)c1ccc(C(=O)Nc2ccc(Cl)c(-c3ccccn3)c2)c(Cl)c1 [vismodegib] + NCC(=O)Nc1ccc(-n2nc(C(F)(F)F)cc2-c2ccc3c(ccc4ccccc43)c2)cc1 [OSU03012] (first compound 1 µM, partner dose 1 µM)	97.1%	96.3%	87.6%	89.5%	87.3%	81.6%	112%	185%	104%
NC1(c2ccc(-c3nc4ccn5c(=O)[nH]nc5c4cc3-c3ccccc3)cc2)CCC1 + c1cc(-c2cnn3cc(-c4ccc(OCCN5CCCCC5)cc4)cnc23)ccn1 [Dorsomorphin] (first compound 0.4 µM, partner dose 0.4 µM)	68%	98.7%	99.1%	78.7%	94.2%	95.4%	84.3%	92.1%	95.3%
CN(c1ncccc1CNc1nc(Nc2ccc3c(c2)CC(=O)N3)ncc1C(F)(F)F)S(C)(=O)=O + COc1cc(N2CCC(N3CCN(C)CC3)CC2)ccc1Nc1ncc(Cl)c(Nc2ccccc2S(=O)(=O)C(C)C)n1 [NVP-TAE684] (first compound 0.08 µM, partner dose 0.08 µM)	84.8%	78.9%	83.8%	95.7%	107%	95.1%	115%	72%	94.6%
NC1(c2ccc(-c3nc4ccn5c(=O)[nH]nc5c4cc3-c3ccccc3)cc2)CCC1 + COc1ccc(-c2ccc3c(N4CCOCC4)nc(N4C[C@@H](C)O[C@@H](C)C4)nc3n2)cc1CO [KU0063794] (first compound 0.4 µM, partner dose 0.02 µM)	55.6%	82.9%	115%	95.5%	94.1%	95.6%	78.7%	92.8%	86.3%
CN(c1ncccc1CNc1nc(Nc2ccc3c(c2)CC(=O)N3)ncc1C(F)(F)F)S(C)(=O)=O + CN(C)S(=O)(=O)c1ccc2c(c1)/C(=C/c1cc3c([nH]1)CCCC3)C(=O)N2 [SU6656] (first compound 0.08 µM, partner dose 0.4 µM)	83.3%	77.1%	78.4%	78%	91.2%	92.5%	78%	135%	104%
CCCS(=O)(=O)Nc1ccc(F)c(C(=O)c2c[nH]c3ncc(Cl)cc23)c1F + NCC(=O)Nc1ccc(-n2nc(C(F)(F)F)cc2-c2ccc3c(ccc4ccccc43)c2)cc1 [OSU03012] (first compound 0.08 µM, partner dose 1 µM)	74.4%	82.2%	90.6%	85.3%	62%	87.4%	95%	169%	92.7%
NC1(c2ccc(-c3nc4ccn5c(=O)[nH]nc5c4cc3-c3ccccc3)cc2)CCC1 + NCC(=O)Nc1ccc(-n2nc(C(F)(F)F)cc2-c2ccc3c(ccc4ccccc43)c2)cc1 [OSU03012] (first compound 0.4 µM, partner dose 1 µM)	81.3%	64.9%	66.6%	104%	85%	95.3%	88.6%	132%	78.1%
CS(=O)(=O)c1ccc(C(=O)Nc2ccc(Cl)c(-c3ccccn3)c2)c(Cl)c1 [vismodegib] + Cn1cc(/C=C2\C(=O)Nc3cccnc32)c2ccccc21 [GW441756] (first compound 1 µM, partner dose 0.4 µM)	88.2%	99.2%	105%	102%	105%	110%	115%	70.6%	112%
CS(=O)(=O)c1ccc(C(=O)Nc2ccc(Cl)c(-c3ccccn3)c2)c(Cl)c1 [vismodegib] + O=C(CCCCCCC(=O)Nc1ccccc1)NO [vorinostat] (first compound 1 µM, partner dose 0.08 µM)	90.8%	76.3%	92.9%	98.4%	97.2%	97.4%	97.2%	136%	102%
NC1(c2ccc(-c3nc4ccn5c(=O)[nH]nc5c4cc3-c3ccccc3)cc2)CCC1 + NC(=O)Nc1cc(-c2cccc(F)c2)sc1C(=O)N[C@H]1CCCNC1 [AZD7762] (first compound 0.4 µM, partner dose 0.02 µM)	78.5%	69.1%	104%	96.7%	94.7%	112%	123%	126%	87.8%
C=C(c1ccc(C(=O)O)cc1)c1cc2c(cc1C)C(C)(C)CCC2(C)C [Bexarotene] + COc1ccc2c(c1)CCC1C2CCC2(C)C(NCCCCCCN3C(=O)C=CC3=O)CCC12 [U73122] (first compound 2 µM, partner dose 0.4 µM)	91.8%	76.2%	89.2%	107%	105%	94.8%	100%	88.3%	96.9%
C=C(c1ccc(C(=O)O)cc1)c1cc2c(cc1C)C(C)(C)CCC2(C)C [Bexarotene] + O=C(CCCCCCC(=O)Nc1ccccc1)NO [vorinostat] (first compound 2 µM, partner dose 0.08 µM)	106%	87.3%	100%	88.2%	95%	98.9%	116%	162%	95.8%
